From PubChem BioAssay AID662 (National Center for Advancing Translational Sciences (NCATS), 2007)
Out of some 71,000 compounds screened, about 1,800 (2.5%) were called active. Inconclusive means that the source gave no clear call. Such entries were picked first, then a sample of the others. Calls come from the whole dose curve; as a rule, active = well fitted activation curve with a large enough effect in the signal ratio, with a control signal flat (not every such curve was filed as active); inconclusive = small, poorly fitted or top-dose-only effect, or effect the other way, or a change in a side signal; inactive = flat fitted curve, though single readings scatter; the % refers to the signal ratio. Potencies beside an inconclusive call are fits to weak or partial responses and may not hold up.

Assay: Cell signaling CRE-BLA (Fsk stim); for activity change, negative = inhibition: % of control where 0% means no effect
Conditions: CHO CRE-bla reporter (cAMP response element driving beta-lactamase), forskolin EC10, beta-lactamase ratio; activity change, negative = inhibition: at 38.2 µM (top of the series) unless noted
Procedure, shortened: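 CRE-bla CHO cells stimulated with EC10 NKH 477 (water-soluble forskolin) and compound titrations, 3 h at 37C; beta-lactamase read with CCF4 after 2 h at room temperature. Activity from 460/530 nm emission ratio, AC50 values for positive or negative modulation.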
Potency is the fitted concentration of half-maximal effect; tags give direction and shape of the fitted curve.

**Q.** For Cc1cccc(Nc2ccccc2C(=O)O)c1C, which “activity change, negative = inhibition” value is on record?
**A.** inactive: 3.94% [at 17.1 µM]

**Q.** With Cn1c(=O)c2c(nc(SCc3nn[nH]n3)n2Cc2ccccc2F)n(C)c1=O as the compound, how does the “activity change, negative = inhibition” value read?
**A.** inactive: -1.84%

**Q.** For Cc1ccsc1C1C(C(=O)O)c2ccccc2C(=O)N1C (centres undefined), which “activity change, negative = inhibition” value is on record?
**A.** inactive: 3.85%

**Q.** With COC(=O)c1ccccc1NC(=O)c1sc(N)nc1C as the compound, how does the Potency read?
**A.** active: 15.8 µM

**Q.** Which Potency does the source give for CC(C)Nc1nc(NC(C)C)nc(N(C)C(N)=O)n1 here?
**A.** active: 10 µM

**Q.** For COCCCN(C(C)=O)c1nc(-c2ccc(OC)cc2)cs1, which activity change, negative = inhibition is on record?
**A.** inconclusive: 29%

**Q.** With N#Cc1cccc(NC(=O)N2CC3(CCN(C(=O)c4ccco4)CC3)C2)c1 as the compound, how does the “activity change, negative = inhibition” value read?
**A.** inactive: 1.11%

**Q.** For CC[C@@H](C)[C@H]1O[C@]2(CC[C@@H]1C)C[C@@H]1C[C@H](C/C=C(/C)[C@H](O[C@@H]3C[C@H](OC)[C@H](O[C@@H]4C[C@H](OC)[C@@H](O)[C@H](C)O4)[C@H](C)O3)[C@@H](C)/C=C\C=C3CO[C@@H]4[C@H](O)C(C)=C[C@@H](C(=O)O1)[C@]34O)O2 (tested in a mixture with another compound), which activity change, negative = inhibition is on record?
**A.** inconclusive: 40.8%

**Q.** Which Potency does the source give for COc1ccc(-c2cc3ccccc3oc2=O)cc1NC(=O)c1ccc(Br)o1 here?
**A.** inconclusive: 3.98 µM [rising, partial curve]

**Q.** Which Potency does the source give for Clc1ccccc1-c1ccc2ncnc(NCCN3CCOCC3)c2c1 here?
**A.** inconclusive: 12.6 µM [rising, partial curve]

**Q.** For CC(C)NC(=O)CSc1nc2ccccc2c(=O)n1CCCOC(C)C, which “activity change, negative = inhibition” value is on record?
**A.** inactive: -6.63%

**Q.** For O=S(=O)(NCC(c1cccnc1)N1CCOCC1)c1cccs1 (centres undefined), which activity change, negative = inhibition is on record?
**A.** inconclusive: -15.2%

**Q.** For CCNc1ncc2nc(-c3cc(F)cc(F)c3)c(=O)n(-c3ccc(OC)cc3)c2n1, which Potency is on record?
**A.** inconclusive: 0.631 µM [rising, full curve]

**Q.** With Cc1nc2oc3ccccc3c(=O)c2c(=O)n1Cc1ccccc1 as the compound, how does the activity change, negative = inhibition read?
**A.** inconclusive: 10.8%

**Q.** With CC1CCN(C(=O)c2scc3c2OCCO3)CC1 as the compound, how does the activity change, negative = inhibition read?
**A.** inconclusive: -25.1%

**Q.** For COc1ccc(C2C(C(=O)NC(C)C)c3ccccc3C(=O)N2C)cc1OC (centres undefined), which “activity change, negative = inhibition” value is on record?
**A.** inactive: -5.95%

**Q.** With O=C(C1CCN(S(=O)(=O)N2CCC3(CC2)OCCO3)CC1)N1CCN(Cc2ccccc2)CC1 as the compound, how does the “activity change, negative = inhibition” value read?
**A.** inactive: -21.6%

**Q.** For Cc1nn(C(=O)N2CCCCC2)c(C)c1CN1C(=O)c2ccccc2C1=O, which Potency is on record?
**A.** inconclusive: 25.1 µM [rising, single point]

**Q.** Which “activity change, negative = inhibition” value does the source give for COc1ccc(-c2ccc(-c3nnn(CC(C)=O)n3)cc2)cc1 here?
**A.** inactive: 8.4%

**Q.** Which activity change, negative = inhibition does the source give for OCC#CCSc1nnc(-c2ccc(Br)cc2)o1 here?
**A.** inconclusive: 27%

**Q.** For O=C(CSc1nnc(Cc2cccs2)n1-c1ccccc1)Nc1ccc2c(c1)OCCO2, which activity change, negative = inhibition is on record?
**A.** inconclusive: 8.13%

**Q.** With CN(C)C(=O)c1ccc(-c2cncnc2NCCc2cnc[nH]2)cc1 as the compound, how does the “activity change, negative = inhibition” value read?
**A.** inactive: -10.8%

**Q.** With Cc1ccnc(Nc2nc(-c3c(C)nc4sccn34)cs2)c1 as the compound, how does the activity change, negative = inhibition read?
**A.** inconclusive: -22.8%

**Q.** For COC(=O)c1ccc(CSc2ccccc2C)o1, which “activity change, negative = inhibition” value is on record?
**A.** inactive: -26.7%

**Q.** Which “activity change, negative = inhibition” value does the source give for C=C(C)Cn1c(Sc2nc3ccccc3[nH]2)nc2c1c(=O)[nH]c(=O)n2C here?
**A.** inactive: 1.33%

**Q.** With Cc1ccc(S(=O)(=O)CCc2ccccn2)cc1 as the compound, how does the “activity change, negative = inhibition” value read?
**A.** inactive: -4.62%

**Q.** For COc1ccc(Cc2nc3ccc(S(N)(=O)=O)cc3[nH]2)cc1OC, which Potency is on record?
**A.** inconclusive: 5.01 µM [falling, single point]

**Q.** With O=C(NCc1cccs1)C1CCN(S(=O)(=O)c2cccc3nsnc23)CC1 as the compound, how does the activity change, negative = inhibition read?
**A.** inconclusive: -20.5%

**Q.** Which Potency does the source give for COc1ccc(CNC(=O)C2CSCCS2)cc1 (centres undefined) here?
**A.** inconclusive: 0.00794 µM [falling, full curve, poor fit]

**Q.** For COC(=O)c1[nH]c2ccc(Br)cc2c1NC(=O)CN1CCN(C2CCCCC2)CC1, which activity change, negative = inhibition is on record?
**A.** inconclusive: 7.42%

**Q.** Which Potency does the source give for CCOc1ccc2nc(NCCNC(=O)Nc3ccccc3)c(C#N)cc2c1 here?
**A.** inconclusive: 12.6 µM [rising, partial curve]

**Q.** Which activity change, negative = inhibition does the source give for Cc1nc2cnc(Oc3cccc(Cl)c3)nc2n(CCc2ccccc2)c1=O here?
**A.** inconclusive: -0.325%

**Q.** With CCN(CC)c1ccc2c(c1)oc(=O)c1c(Cl)cc(=O)oc12 as the compound, how does the Potency read?
**A.** inconclusive: 10 µM [rising, partial curve]

**Q.** With CN(CCOc1ccc(C[C@H](Nc2ccccc2C(=O)c2ccccc2)C(=O)O)cc1)c1ccccn1 as the compound, how does the activity change, negative = inhibition read?
**A.** inconclusive: -17.4%

**Q.** With CCOC(=O)C1CCN(S(=O)(=O)c2cc(Cl)c(C)cc2OC)CC1 as the compound, how does the activity change, negative = inhibition read?
**A.** inconclusive: -7.58%

**Q.** With O=C(CSc1nnc(-c2ccc(Br)o2)n1Cc1ccccc1)c1ccccc1F as the compound, how does the Potency read?
**A.** inconclusive: 12.6 µM [rising, single point]

**Q.** With COc1ccc(S(=O)(=O)Nc2ccccc2C(=O)NCc2ccco2)cc1Br as the compound, how does the “activity change, negative = inhibition” value read?
**A.** inactive: 0.957%

**Q.** With O=C(CSc1ccc2nnc(-c3ccccc3)n2n1)NCC1CCCO1 (centres undefined) as the compound, how does the activity change, negative = inhibition read?
**A.** inconclusive: 8.27%

**Q.** With O=C(O)C1CCCCC1C(=O)OCCCCOC(=O)C1CCCCC1C(=O)O (centres undefined) as the compound, how does the Potency read?
**A.** inconclusive: 0.02 µM [rising, full curve, poor fit]
